Laboratory results published in patent US5459236A, “Vasoactive vasotocin derivatives” (Ferring AB, priority 1990, dated 1995).
Part of at least one peptide drawing is inferred or uncertain, most often the ends. Starred links: 1 amine or outer side, 2 acyl side, 3 side chain; linkers in the order of their positions; H or OH if unused. Positions of bridges follow the written chain, without caps; N, C: chain ends. Non-standard residues stand in square brackets, D forms with d. Residues, ends and D or L forms follow the SMILES beside them. hCit = NC(=O)NCCCC[C@H](N)C(=O)O; Aad = N[C@@H](CCCC(=O)O)C(=O)O; X1 = O=C(C(O)CS[*:2])[*:1]; Orn = NCCC[C@H](N)C(=O)O; Dab = NCC[C@H](N)C(=O)O; Abu = CC[C@H](N)C(=O)O

What was measured:
[1] = system: anaesthetised water-loaded Sprague Dawley rats; experiment: Antidiuretic potency test, 4-point test against standard AVP; format: in vivo; conditions: maximal increase of urine conductivity after intravenous injection, 4-point test vs AVP
Text: (§1) Vasotocin derivatives according to the invention have been tested for potency of both blood pressure and antidiuretic activity in a so-called 4-point test, i.e. the activity of the test substances has been related to a standard preparation (AVP=argininevasopressin), and the effects of two dose levels for each substance have been analysed. In addition, three pressor-specific VT derivatives according to our previous application SE 8703855-0 have been tested for a comparison, namely 1-Hmp-2-Phe-S-Orn-VT (compound 2 in Table 1), 1-Hmp-2-Phe-S-Dab-VT (compound 3 in Table 1), and 1-Hmp-2-Phe-S-Dab(Ala)-VT (compound 5 in Table 1).
Antidiuretic potency was determined with the aid of anaesthetised water-loaded Sprague Dawley rats (200 g) (Larsson, L. E., Lindeberg, G., Melin, P. and Pliska, V., 1978, J. Mad. Chem. 21, 353). Maximal increase of urine conductivity after intravenous injections was used as effect parameter.
(§2) In these two tests, a comparison was made between the effects of the respective derivative and the effect of a standard preparation, AVP, and potency was determined with the aid of a 4-point test and is indicated in international units per micromole (IU/μmole) (Sturmer, E., in Handbook of Expermimental Pharmacology, 1966, Vol 23, pp 130-189).

[2] = system: anaesthetised Sprague Dawley rats, previously treated with dibenamine; experiment: Blood pressure (pressor) test, 4-point test against standard AVP; format: in vivo; conditions: for BLOOD PRESSURE BP I.P (measure of duration of effect), index of persistence: dimensionless, effect duration in relation to the standard AVP, intravenous; for BLOOD PRESSURE BP potency: maximal blood pressure increase after intravenous injection, 4-point test vs AVP, anaesthetised rats; for BP/AD (measure of specificity): ratio of potency blood pressure/potency antidiuresis
Text: as §1
Blood pressure tests were carried out on anaesthetised Sprague Dawley rats (about 250 g), previously treated with dibenamine (Dekanski, J., 1952. Br. J. Pharmacol. 7, 567). Maximal blood pressure increase after intravenous injections of peptide was used as a measure of the effect, expressed as intensity.
In addition to potency determination based-on effect intensity, a measure of the length of the effect has been stated (index of persistence (I.P.), Pliska, V., 1966. Arzheim. Forech. 16, 886). This dimensionless factor is a measure of the effect duration of the respective analog in relation to the standard AVP.
as §2
The specificity in respect of blood pressure is indicated by the ratio of potency blood pressure/potency antidiuresis (BP/AD).

| SMILES | ANTIDIURESIS AD potency [1] | BLOOD PRESSURE BP I.P (measure of duration of effect), index of persistence [2] | BLOOD PRESSURE BP potency [2] | BP/AD (measure of specificity) [2] |
| --- | --- | --- | --- | --- |
| CC[C@H](N)C(=O)NCC[C@H](NC(=O)[C@@H]1CCCN1C(=O)[C@@H]1CSSCC(O)C(=O)N[C@@H](Cc2ccccc2)C(=O)N[C@@H]([C@@H](C)CC)C(=O)N[C@@H](CCCCNC(N)=O)C(=O)N[C@@H](CC(N)=O)C(=O)N1)C(=O)NCC(N)=O (some centres unmarked) [Ex. 5, 1-Hmp-2-Phe-4-Hci-8-Dab(Abu)-VT] (FI[hCit]NCP[Dab](Abu)G-NH2; linker N-5 via X1) | 0.2 ± 0.04 IU/μmole | 3.6 ± 0.7 | 67 ± 5 IU/μmole | 335 |
| CC[C@H](C)[C@@H]1NC(=O)[C@H](Cc2ccccc2)NC(=O)C(O)CSSC[C@@H](C(=O)N2CCC[C@H]2C(=O)N[C@@H](CCN)C(=O)NCC(N)=O)NC(=O)[C@H](CC(N)=O)NC(=O)[C@H](CCCC(N)=O)NC1=O (some centres unmarked) [Ex. 1, 1-Hmp-2-Phe-4-Hgn-8-Dab-VT] | 0.3 ± 0.02 IU/μmole | 2.3 ± 0.5 | 214 ± 6 IU/μmole | 713 |
| CC[C@H](C)[C@@H]1NC(=O)[C@H](Cc2ccc(O)cc2)NC(=O)C(O)CSSC[C@@H](C(=O)N2CCC[C@H]2C(=O)N[C@@H](CCCN)C(=O)NCC(N)=O)NC(=O)[C@H](CC(N)=O)NC(=O)[C@H](CCCC(N)=O)NC1=O (some centres unmarked) [Ex. 6, 1-Hmp-4-Hgn-8-Orn-VT] (YI[Aad](NH2)NCP[Orn]G-NH2; linker N-5 via X1) | 1.0 ± 0.2 IU/μmole | 7.3 ± 1.8 | 473 ± 62 IU/μmole | 473 |
| CC[C@H](C)[C@@H]1NC(=O)[C@H](Cc2ccccc2)NC(=O)C(O)CSSC[C@@H](C(=O)N2CCC[C@H]2C(=O)N[C@@H](CCNC(=O)[C@H](C)N)C(=O)NCC(N)=O)NC(=O)[C@H](CC(N)=O)NC(=O)[C@H](CCCC(N)=O)NC1=O (some centres unmarked) [Ex. 2, 1-Hmp-2-Phe-4-Hgn-8-Dab(Ala)-VT] | 0.2 ± 0.02 IU/μmole | 6.6 ± 1.0 | 117 ± 6 IU/μmole | 585 |
| CC[C@H](N)C(=O)NCC[C@H](NC(=O)[C@@H]1CCCN1C(=O)[C@@H]1CSSCC(O)C(=O)N[C@@H](Cc2ccccc2)C(=O)N[C@@H]([C@@H](C)CC)C(=O)N[C@@H](CCCC(N)=O)C(=O)N[C@@H](CC(N)=O)C(=O)N1)C(=O)NCC(N)=O (some centres unmarked) [Ex. 3, 1-Hmp-2-Phe-4-Hgn-8-Dab(Abu)-VT] | 0.2 ± 0.01 IU/μmole | 8.6 ± 2.3 | 163 ± 15 IU/μmole | 858 |
| CC[C@H](C)[C@@H]1NC(=O)[C@H](Cc2ccccc2)NC(=O)C(O)CSSC[C@@H](C(=O)N2CCC[C@H]2C(=O)N[C@@H](CCN)C(=O)NCC(N)=O)NC(=O)[C@H](CC(N)=O)NC(=O)[C@H](CCCCNC(N)=O)NC1=O (some centres unmarked) [Ex. 4, 1-Hmp-2-Phe-4-Hci-8-Dab-VT] (FI[hCit]NCP[Dab]G-NH2; linker N-5 via X1) | 0.3 ± 0.05 IU/μmole | 1.7 ± 0.05 | 157 ± 13 IU/μmole | 523 |
| CC[C@H](C)[C@@H]1NC(=O)[C@H](Cc2ccccc2)NC(=O)C(O)CSSC[C@@H](C(=O)N2CCC[C@H]2C(=O)N[C@@H](CCNC(=O)[C@H](C)N)C(=O)NCC(N)=O)NC(=O)[C@H](CC(N)=O)NC(=O)[C@H](CCC(N)=O)NC1=O (some centres unmarked) [1-Hmp-2-Phe-8-Dab(Ala)-VT, reference compound] | 4.3 ± 0.3 IU/μmole | 6.7 ± 1.5 | 360 ± 31 IU/μmole | 84 |
| CC[C@H](C)[C@@H]1NC(=O)[C@H](Cc2ccc(O)cc2)NC(=O)C(O)CSSC[C@@H](C(=O)N2CCC[C@H]2C(=O)N[C@@H](CCN)C(=O)NCC(N)=O)NC(=O)[C@H](CC(N)=O)NC(=O)[C@H](CCCC(N)=O)NC1=O (some centres unmarked) [Ex. 7, 1-Hmp-4-Hgn-8-Dab-VT] (YI[Aad](NH2)NCP[Dab]G-NH2; linker N-5 via X1) | 2.9 ± 0.5 IU/μmole | 3.8 ± 0.8 | 536 ± 53 IU/μmole | 185 |
